Test results reported in PubChem BioAssay AID720709 (National Center for Advancing Translational Sciences (NCATS), 2013).
In all, about 360,000 compounds went through this assay and about 520 (0.14%) were called active. The shares of active, inactive and inconclusive entries below differ from those in the screen. Calls follow the shape of the dose curve; as a rule, active = well fitted inhibition curve with a large enough effect; inconclusive = small, poorly fitted or top-dose-only effect; inactive = no such curve, though single readings can be large or run the other way. No potency is given beside an inconclusive call; the fits are too rough.

Each molecule was assayed against Rap guanine nucleotide exchange factor 3 (Homo sapiens) (UniProt O95398) (assay: qHTS for Antagonist of cAMP-regulated guanine nucleotide exchange factor 3 (EPAC1): primary screen). Conditions: EPAC1 GEF assay, Rap1b-BODIPY-GDP exchange fluorescence; activity change, negative = inhibition: at 115 µM (top of the series).
Chain of UniProt O95398 (O95398 whole entry, looked up): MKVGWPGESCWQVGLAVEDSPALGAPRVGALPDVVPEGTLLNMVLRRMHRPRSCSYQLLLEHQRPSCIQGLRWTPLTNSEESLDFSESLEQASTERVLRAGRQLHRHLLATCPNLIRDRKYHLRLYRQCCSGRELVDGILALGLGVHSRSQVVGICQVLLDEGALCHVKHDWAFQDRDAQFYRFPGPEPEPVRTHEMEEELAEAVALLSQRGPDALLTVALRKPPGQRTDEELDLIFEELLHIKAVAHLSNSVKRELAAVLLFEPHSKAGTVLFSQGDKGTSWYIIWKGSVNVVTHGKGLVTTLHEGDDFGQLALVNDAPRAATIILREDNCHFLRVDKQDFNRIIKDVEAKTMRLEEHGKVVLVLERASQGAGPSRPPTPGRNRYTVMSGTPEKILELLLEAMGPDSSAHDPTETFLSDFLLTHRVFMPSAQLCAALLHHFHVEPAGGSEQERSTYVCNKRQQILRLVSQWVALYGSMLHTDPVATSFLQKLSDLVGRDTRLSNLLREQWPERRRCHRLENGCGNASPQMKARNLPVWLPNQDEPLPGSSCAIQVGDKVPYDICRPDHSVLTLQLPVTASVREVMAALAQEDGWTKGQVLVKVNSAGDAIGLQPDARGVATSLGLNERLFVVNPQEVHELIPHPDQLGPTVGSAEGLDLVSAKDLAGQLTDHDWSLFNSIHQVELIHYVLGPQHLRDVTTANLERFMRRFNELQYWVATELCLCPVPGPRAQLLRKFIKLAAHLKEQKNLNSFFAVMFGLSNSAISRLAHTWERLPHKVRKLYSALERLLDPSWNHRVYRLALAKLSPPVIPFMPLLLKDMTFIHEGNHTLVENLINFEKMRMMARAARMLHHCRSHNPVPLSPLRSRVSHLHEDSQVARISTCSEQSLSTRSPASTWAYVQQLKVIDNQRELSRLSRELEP
Also: nearly all actives have a fitted effect of over 50% in size.
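For activity change, negative = inhibition in this document: plate controls were vehicle for no effect and positive control for full effect.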
Potency is read from the fitted curve at half-maximal effect; tags tell the direction and shape of the fitted curve.

SMILES	activity change, negative = inhibition	Potency
Clc1ccc(CNC2CCCC2)c(Cl)c1	inactive: 24.1%	
CCOc1ccc(Nc2ccc3nonc3c2[N+](=O)[O-])cc1		inconclusive [inhibitor, single point]
COc1ccccc1N1CCN(S(=O)(=O)c2ccc(-c3cnc(C4CC4)o3)cc2)CC1		inconclusive [inhibitor, partial curve, poor fit]
O=C(NCc1ccc(OC(F)(F)F)cc1)C12CN(Cc3ccccc3)CC1C(c1cccc([N+](=O)[O-])c1)=NO2 (stereo not drawn)		inconclusive [inhibitor, full curve, poor fit]
COCCCN1CCN(C2Cc3ccccc3Sc3ccc(Cl)cc32)CC1 (stereo not drawn)	inactive: 14.8%	
CN(CC(=O)Nc1ccccc1Cl)C(=O)COC(=O)c1nc(Cl)c(Cl)c(Cl)c1Cl	inactive: -1.22%	
Cc1cccc(NC(=O)CSc2ccc(-c3ccco3)nn2)c1C		inconclusive [inhibitor, full curve, poor fit]
C/C(=C\c1ccco1)CN1CCN(Cc2ccc(C)o2)C(CCO)C1 (stereo not drawn)		inconclusive [inhibitor, single point]
O=C(Nc1ccnn1C1CCN(CCCC2CCCC2)CC1)c1ccccc1Cl	inactive: 21.3%	
Cc1cccc(N2CCN(C(=O)c3ccc4c(c3)NC(=O)C(CSCc3cccc(F)c3)N4)CC2C)c1 (stereo not drawn)	inactive: 14.3%	
CC(CC(=O)N1CCc2ccccc21)n1cccn1 (stereo not drawn)		inconclusive [inhibitor, single point]
O=C(N/N=C/c1ccccn1)c1cc(-c2ccc3ccccc3c2)n[nH]1		inconclusive [inhibitor, single point]
COc1ccc(C2OC(CCc3ccccc3)CC3=C2C(=O)OC(C)(C)O3)cc1 (stereo not drawn)	inactive: -15.8%	
CC1CCCN(c2ccc(C(=O)NCc3ccccc3)cn2)C1 (stereo not drawn)	inactive: -24%	
O=c1cc2oc3cc(O)c(O)cc3c(-c3ccccc3O)c-2cc1O		inconclusive [inhibitor, full curve]
COC(=O)c1ccc2c(=O)n(CCCCCC(=O)NC(C)C)c(=O)[nH]c2c1		inconclusive [inhibitor, partial curve]
C=CCC[C@H](CCCCC)OC(=O)/C=C/[C@H](O)[C@@H](O)C[C@@H](O)CC=C		inconclusive [inhibitor, single point]
Cc1cc(C)cc(NC(=O)CCCn2nc(C)c3c(C)n(-c4ccccc4)nc3c2=O)c1		inconclusive [inhibitor, full curve, poor fit]
COCc1nc(-c2ccc(-c3ccccc3)nc2OC)no1	inactive: 0%	
NC(=S)N=Nc1c(O)[nH]c2ccc(F)cc12	inactive: -7.28%	
Cc1cccc(NC(=O)c2ccc(S(=O)(=O)N(C)C)cc2)c1		inconclusive [inhibitor, single point]
O=C(COc1ccc(F)c(Cl)c1)c1ccc[nH]1	inactive: -1.32%	
COc1ccc(CCN=C(N)NS(=O)(=O)c2ccc(C)cc2)cc1OC		inconclusive [inhibitor, single point]

SMILES	activity change, negative = inhibition	Potency
Cc1ccc(Cn2cccc(NS(C)(=O)=O)c2=O)cc1	inactive: -0.314%	
C/C(CC(=O)NC12CC3CC(CC(C3)C1)C2)=N\NC(=O)c1ccc(C)cc1		inconclusive [inhibitor, full curve, poor fit]
O=C(OCc1ccc(Cl)cc1Cl)c1cccnc1Cl		inconclusive [inhibitor, partial curve]
CC(=O)N1CCN(C(=O)c2ccc(OC3CCN(Cc4ccccn4)CC3)cc2)CC1		inconclusive [inhibitor, single point]
Cc1cccc(NC(=S)NCc2ccc(F)cc2)c1C		inconclusive [inhibitor, full curve, poor fit]
CC1(C)CC[C@]2(C(=O)n3ccnc3)CC[C@]3(C)[C@H](C(=O)C=C4[C@@]5(C)C=C(C#N)C(=O)C(C)(C)[C@@H]5CC[C@]43C)[C@@H]2C1		inconclusive [inhibitor, partial curve]
O=C(Nc1cccnc1)Nc1cc(Cl)cc(Cl)c1	inactive: -0.925%	
COc1ccc2nc(SCC(=O)N3CCCCCC3)c(C#N)cc2c1	inactive: 0%	
CC(C)Cc1nnc(NC(=O)Nc2ccccc2)s1		inconclusive [inhibitor, full curve, poor fit]
CC(C)CCn1c(-c2nonc2N)nc2ccccc21		inconclusive [inhibitor, single point]
O=C(COC(=O)c1cc(S(=O)(=O)N2CCOCC2)ccc1Cl)NCc1ccccc1	inactive: 6.16%	
CC(C)(C)c1ccc(C(=O)c2cn[nH]c2-c2ccccc2O)cc1		inconclusive [inhibitor, partial curve]
Cn1c(SCC(=O)Nc2ccccc2[N+](=O)[O-])nnc1C(F)(F)F	inactive: 2.79%	
CN(C)Cc1c(C(=O)N/N=C/c2cccnc2)nnn1-c1nonc1N		inconclusive [inhibitor, single point]
O=C(NNC(=O)c1cccs1)c1ccc(Br)cc1	inactive: -8.81%	
O=C(CCc1ccccc1)Nc1ccnn1C1CCN(Cc2ncc[nH]2)CC1		inconclusive [inhibitor, partial curve]
COC(=O)N/N=C/c1ccc(-c2cccc(Cl)c2)o1		inconclusive [inhibitor, single point]
O=C(/C=C(\O)c1ccc(Cl)cc1)C(=O)NNC(=O)C(O)(c1ccccc1)c1ccccc1		inconclusive [inhibitor, single point]
CC1(c2ccc(OC(F)F)cc2)NC(=O)N(CC(=O)c2ccc3c(c2)OCO3)C1=O (stereo not drawn)		inconclusive [inhibitor, full curve, poor fit]
Nc1nc2ccccc2n1S(=O)(=O)c1ccccc1		inconclusive [inhibitor, partial curve]
CCN1CC=C2C(C#N)=C(N)C(C#N)(C#N)C(CCc3ccccc3)C2C1 (stereo not drawn)	inconclusive: -13.6% [inhibitor]	
CCC(=O)N1CCN(c2ccc(NC(=S)NC(=O)C(C)C)cc2)CC1		inconclusive [inhibitor, single point]
O=c1[nH]c(C2CCN(S(=O)(=O)c3cccc([N+](=O)[O-])c3)CC2)nc2c1nnn2Cc1ccccc1	inactive: -28.4%	

SMILES	activity change, negative = inhibition	Potency
COc1cc2c(ccc3cc(OC)c(OC)c(O)c32)cc1O		inconclusive [inhibitor, partial curve]
COC(=O)c1ccc(NC(=S)NNC(=O)c2ccccc2)cc1		inconclusive [inhibitor, full curve, poor fit]
CC(=O)Nc1ccc(C(=O)OCc2ccccc2Cl)cc1		inconclusive [inhibitor, single point]
Cc1sc2nc(C(C)Nc3ccccc3N3CCOCC3)[nH]c(=O)c2c1C (stereo not drawn)		inconclusive [inhibitor, single point]
COCCCN1C(=O)C(CC(=O)NCc2cccs2)CC(C(=O)N(C)C)=C1C (stereo not drawn)	inactive: 2.5%	
COc1ccc(CC(=O)Nc2nc(-c3ccc(F)c(F)c3)cs2)cc1OC		inconclusive [inhibitor, partial curve, poor fit]
CCOc1cccc(CNCCO)c1OCc1ccc(Cl)cc1Cl	inactive: -13%	
O=C(Cn1nnc2ccccc21)Nc1ccc([N+](=O)[O-])cc1		inconclusive [inhibitor, single point]
CCC(C)NCCCOc1ccc(Cl)cc1C(C)(C)C (stereo not drawn)		inconclusive [inhibitor, full curve, poor fit]
COc1ccc(C[C@H]2CN3C(=NC[C@H]3C)N2CCNC(=O)CCC2CCCCC2)cc1		inconclusive [inhibitor, partial curve, poor fit]
Cc1ccc(S(=O)(=O)N(CC(=O)NC2CC3CCC2C3)c2ccccc2)cc1 (stereo not drawn)	inactive: 3.23%	
O=c1cc(N2CCCCC2)c(-c2ccccc2)nn1Cc1ccc(Cl)cc1Cl		inconclusive [inhibitor, single point]
CC1CCN(C(=O)CCNC(=O)c2ccccc2Cl)CC1	inactive: -4.98%	
O=C(OCCC12CC3CC(CC(C3)C1)C2)c1ccc(NCc2cc(O)ccc2O)cc1		inconclusive [inhibitor, partial curve]
COc1ccc(S(=O)(=O)N(C(=O)c2ccco2)c2cc3sc(=O)oc3c3ccccc23)cc1		inconclusive [inhibitor, single point]
CCCOc1ccc(C2C(C(=O)c3cc4ccccc4o3)=C(O)C(=O)N2c2cc(C)on2)cc1OC (stereo not drawn)		inconclusive [inhibitor, single point]
Cc1cccc(C)c1NC(=O)COC(=O)/C=C/c1ccc(S(=O)(=O)N2CCOCC2)cc1	inactive: -19.2%	
CCCCOc1ccc(C(=O)OCC(=O)NC2CCCC2)cc1		inconclusive [inhibitor, partial curve, poor fit]
NC(c1csc(Nc2ccc(C(=O)NCCCO)cn2)n1)C1CCCCC1 (stereo not drawn)		inconclusive [inhibitor, partial curve]
COc1ccc(C(=O)/C=C/C(=O)N(Cc2ccc3c(c2)OCO3)C(C(=O)NC2CCCCC2)c2ccncc2)c(O)c1 (stereo not drawn)		inconclusive [inhibitor, full curve, poor fit]
COc1ccc(NCc2nc3ccccc3n2CCOc2ccc(C)cc2)cc1	inconclusive: -32% [inhibitor]	
Cc1cc(N(C)C)ccc1N=Nc1ccc2ncccc2c1		inconclusive [inhibitor, single point]
